{"source": "the RNAGym collection of RNA variant scans (doi:10.7554/elife.90254)", "parents": {"B1": {"name": "LINE1-mini (parent)", "chain": "GGCAGAGCUCAACACAGCGUGGCAAAGUGGCUGUGGCUAGACUGCC"}}, "note": "The source gives no read counts; variants with many changes may rest on few reads.", "data": [{"variants_of": "B1", "experiment": "self-cleavage, relative activity (ratio to wild type); higher = more cleavage; in vitro, sequencing; the parent is a self-cleaving ribozyme", "values": [{"variant": "G29A C31U U32C U34G", "self-cleavage": 0.05}, {"variant": "G7A G17C A25C G40U", "self-cleavage": 0.03}, {"variant": "A4G G7C U9A G19C G21C G22U C31U", "self-cleavage": 0.04}, {"variant": "U28A G44U C46U", "self-cleavage": 0.04}, {"variant": "G1U C10A A16G G17A C42U U43A", "self-cleavage": 0.01}, {"variant": "C13G G21C G30U C42G", "self-cleavage": 0.03}, {"variant": "C10G C13U C18U C23G U28G G30A G33A U43A", "self-cleavage": 0.01}, {"variant": "C18U G27U A41C", "self-cleavage": 0.01}, {"variant": "A25G G29U G36U G40A C45A", "self-cleavage": 0.02}, {"variant": "G17A C18U C37A C42A", "self-cleavage": 0.06}, {"variant": "A12C G21U G27A G44A", "self-cleavage": 0.01}, {"variant": "G2U C3A C42G C46A", "self-cleavage": 0.05}, {"variant": "C13A C23U C45G", "self-cleavage": 0.03}, {"variant": "G2A G7A C8G G19A U32G C45U", "self-cleavage": 0.13}, {"variant": "A4G G7U C10A C31A", "self-cleavage": 0.15}, {"variant": "A26G G29A U38A", "self-cleavage": 0.21}, {"variant": "A12G G27U G35C", "self-cleavage": 0.03}, {"variant": "U28G G29C U38G", "self-cleavage": 0}, {"variant": "A6U G19C C37G A41U C42A", "self-cleavage": 0}, {"variant": "G17C C18U G35A U38C", "self-cleavage": 0.01}, {"variant": "G1C A11U C45G", "self-cleavage": 0}, {"variant": "C13A A16G C18G", "self-cleavage": 0.13}, {"variant": "G19U U28C G30C G35A U38C", "self-cleavage": 0.04}, {"variant": "A6C C13A G27U G40U", "self-cleavage": 0.06}, {"variant": "A14G U20C A24U U43C", "self-cleavage": 0.03}, {"variant": "G5C G17C U20C U32C U43G", "self-cleavage": 0.02}, {"variant": "A12G C42U C45U", "self-cleavage": 0.02}, {"variant": "C3G A6G C23U", "self-cleavage": 0.04}, {"variant": "C15U C18U A25U", "self-cleavage": 0.11}, {"variant": "G33A A39G A41U", "self-cleavage": 0.03}, {"variant": "C8A A16G G27A", "self-cleavage": 1.03}, {"variant": "G2A A4U A16U U34A", "self-cleavage": 0.18}, {"variant": "G1C G22U C45U", "self-cleavage": 0.15}, {"variant": "C18A A24C C42U", "self-cleavage": 0.03}, {"variant": "C13U U20G G21C", "self-cleavage": 0.1}, {"variant": "A11G A26G C31G", "self-cleavage": 0}, {"variant": "C10U C23U G36U", "self-cleavage": 0.03}, {"variant": "A6C C13U A24U G44C", "self-cleavage": 0.06}, {"variant": "U9C C15A C23G A26U C42A", "self-cleavage": 0.02}, {"variant": "A4G C23U C45G", "self-cleavage": 0.13}, {"variant": "C8G A16G C18G G22U", "self-cleavage": 0.02}, {"variant": "G2C C8G C18A G36C", "self-cleavage": 0.01}, {"variant": "A12C G40C A41U", "self-cleavage": 0}, {"variant": "C15G A25G C37A G40A", "self-cleavage": 0.02}, {"variant": "C3G C10A G36U G44U", "self-cleavage": 0.01}, {"variant": "G5A A6G U20C U43A", "self-cleavage": 0.01}, {"variant": "C3U G5U C23A G44A", "self-cleavage": 0.05}, {"variant": "C8A G35U C45G C46U", "self-cleavage": 0.37}, {"variant": "G17A C23A C45U", "self-cleavage": 0.15}, {"variant": "G7U C8U C10A U38A", "self-cleavage": 0.02}, {"variant": "C3U G36C A39U", "self-cleavage": 0.15}, {"variant": "A4U G5U G22U G27U U28C", "self-cleavage": 0.13}, {"variant": "C23U C37G C42G", "self-cleavage": 0.02}, {"variant": "G19U C23U A24G G40U", "self-cleavage": 0.25}, {"variant": "U9G G35A G36C", "self-cleavage": 0.04}, {"variant": "G5A U34C G40U", "self-cleavage": 0.03}, {"variant": "G5U A26C G29C C46A", "self-cleavage": 0.05}, {"variant": "C13G C42G G44A", "self-cleavage": 0}, {"variant": "A4U U9G A39G", "self-cleavage": 0.1}, {"variant": "G1U C15A C31G A41G U43A", "self-cleavage": 0.1}, {"variant": "A4U A25C G44A", "self-cleavage": 0.21}, {"variant": "G2U A12G C13A U28A", "self-cleavage": 0.04}, {"variant": "G1A U9C G17U A39G", "self-cleavage": 0.03}, {"variant": "C10A C23U C42U", "self-cleavage": 0.03}, {"variant": "A11G G27U U32A", "self-cleavage": 0.01}, {"variant": "G2C A12C A16C U20C U28A", "self-cleavage": 0.02}, {"variant": "G5C G35U U43A", "self-cleavage": 0.03}, {"variant": "G5A G27C U34A C37G C46G", "self-cleavage": 0.02}, {"variant": "G5C A16G G33U C45G", "self-cleavage": 0.01}, {"variant": "C10A G17U G19C C37U", "self-cleavage": 0.01}, {"variant": "C10G G19U G40U", "self-cleavage": 0}, {"variant": "U20G U34C G44C", "self-cleavage": 0.04}, {"variant": "A11C C13U C37A C42A", "self-cleavage": 0.01}, {"variant": "G29A C31A G35U A39G", "self-cleavage": 0.02}, {"variant": "U20C G29A A39U", "self-cleavage": 0.74}, {"variant": "G2U C3U C10G C37G C46A", "self-cleavage": 0.01}, {"variant": "G5U U9A C42U", "self-cleavage": 0.18}, {"variant": "C3A A6U C10A G21A", "self-cleavage": 0.03}, {"variant": "G30C C42G U43C", "self-cleavage": 0.02}, {"variant": "G2U C18U A25G", "self-cleavage": 0.02}, {"variant": "A16U G40U G44A", "self-cleavage": 0.03}, {"variant": "G1C C13U G35A", "self-cleavage": 0.12}, {"variant": "A4C G5U C10A", "self-cleavage": 0.03}, {"variant": "A4U C18A A26U G35U C37A", "self-cleavage": 0.03}, {"variant": "U9C G17U C45U", "self-cleavage": 0}, {"variant": "C10G G29A C31A C37U U38A", "self-cleavage": 0.01}, {"variant": "C10U C13G C15A A24C", "self-cleavage": 0.06}, {"variant": "G2U A11C G35A", "self-cleavage": 0.01}, {"variant": "U9C A14C G17C G27C", "self-cleavage": 0.04}, {"variant": "C3U G5A C8U A11C A14G C42U U43C", "self-cleavage": 0}, {"variant": "C3U U9G A14C G21U A26U G30C", "self-cleavage": 0.01}, {"variant": "G5U A24U C31U", "self-cleavage": 0.08}, {"variant": "G17A C23G G36A U38C C42G C45U", "self-cleavage": 0.14}, {"variant": "G5A C42A U43G", "self-cleavage": 0.02}, {"variant": "G2U A41C C46A", "self-cleavage": 0.1}, {"variant": "A24U G36U C37A U43C", "self-cleavage": 0.04}, {"variant": "A24U A25C G40U", "self-cleavage": 0.05}, {"variant": "C3G G5U A11G C15U G33U", "self-cleavage": 0.08}, {"variant": "G1A G2C G5C A24U U28G G36C", "self-cleavage": 0}, {"variant": "A16G G19A G21C G36U", "self-cleavage": 0.03}, {"variant": "G1C A26C U28A U38A C42U", "self-cleavage": 0.02}, {"variant": "C15A G21U G29C U32C", "self-cleavage": 0.09}, {"variant": "C8G G29U A39G", "self-cleavage": 0.04}, {"variant": "A14U A24U C42U", "self-cleavage": 0.06}, {"variant": "G2A G5U G27U", "self-cleavage": 0.06}, {"variant": "U20A C23U C31G U32A", "self-cleavage": 0.07}, {"variant": "G1U C8U U32C", "self-cleavage": 0.15}, {"variant": "G7A U20A G29C G33U G36A", "self-cleavage": 0.24}, {"variant": "G2C G7U G29U U32A G35C G36C C45G", "self-cleavage": 0.06}, {"variant": "A25G G35U C37A", "self-cleavage": 0.08}, {"variant": "G17A G21U C37U", "self-cleavage": 0.05}, {"variant": "G1C A11G U20A C23U", "self-cleavage": 0}, {"variant": "C13A G21U A25G", "self-cleavage": 0.04}, {"variant": "G2U A14U C37A U38G G40U", "self-cleavage": 0.03}, {"variant": "G2C G35C A39G", "self-cleavage": 0.05}, {"variant": "C10A A24G G27U", "self-cleavage": 0.08}, {"variant": "C3A A11U G19U U43C C45G", "self-cleavage": 0.01}, {"variant": "G7U C10U G40U", "self-cleavage": 0.05}, {"variant": "G2A G5A A14C C46A", "self-cleavage": 0.28}, {"variant": "G5A G21C G29C U43C", "self-cleavage": 0.01}, {"variant": "A12G C15U G17U U20A G40U", "self-cleavage": 0.02}, {"variant": "C3A C8A G35A G36A", "self-cleavage": 1.61}, {"variant": "A25G A26U G35A C42G", "self-cleavage": 0.01}, {"variant": "C8A U9A C18U G22A", "self-cleavage": 0.23}, {"variant": "A16G C37U C42A", "self-cleavage": 0.01}, {"variant": "A11U G17A G29U", "self-cleavage": 0.01}, {"variant": "G5C G21U C37A A41G", "self-cleavage": 0}, {"variant": "C3G C31A G36U", "self-cleavage": 0.15}, {"variant": "A12U G17U C23G G27U", "self-cleavage": 0.13}, {"variant": "A24U C31A G40C", "self-cleavage": 0.07}, {"variant": "A11U A16C G17U C31G G33C", "self-cleavage": 0}, {"variant": "U9A G27C G33A", "self-cleavage": 0.33}, {"variant": "A12G G21A A24G", "self-cleavage": 0.02}, {"variant": "U9A A12G G22C C23A", "self-cleavage": 0.08}, {"variant": "C3A G21U G33A G40A C46A", "self-cleavage": 0.05}, {"variant": "A6U A24U U34A", "self-cleavage": 0.09}, {"variant": "G1U A4C C8A C46G", "self-cleavage": 0.11}, {"variant": "A4G A6C G27U G30U", "self-cleavage": 0.45}, {"variant": "G1U U38G A41G", "self-cleavage": 0}, {"variant": "G5U C10A G17C", "self-cleavage": 0.02}, {"variant": "G5C A24U C37G", "self-cleavage": 0.01}, {"variant": "C18A G30U C37A U38A A41U U43A", "self-cleavage": 0}, {"variant": "C10U A14U U28C", "self-cleavage": 0.21}, {"variant": "G1A G17A C23U C31A U34A C45G", "self-cleavage": 0.03}, {"variant": "G2C U9C G21C G29C C42A", "self-cleavage": 0.01}, {"variant": "C3G A24U A39C G44A", "self-cleavage": 0.03}, {"variant": "A6U A16G G44U", "self-cleavage": 0.06}, {"variant": "G7A C10U G21C", "self-cleavage": 0.03}, {"variant": "C3U G17U G21C", "self-cleavage": 0.24}, {"variant": "A4G G5U U20C G33U U38C", "self-cleavage": 0.05}, {"variant": "G2C C10A C13A C23G", "self-cleavage": 0.02}, {"variant": "G5C A25U G27U", "self-cleavage": 0.04}, {"variant": "G5C A16G C23A G27C U28C G30A", "self-cleavage": 0.04}, {"variant": "G2U C23G A41G", "self-cleavage": 0.03}, {"variant": "G29C G36A A39G", "self-cleavage": 0.04}, {"variant": "C23G A25U G30A", "self-cleavage": 0.5}, {"variant": "U9C C13G G17U A39C", "self-cleavage": 0.01}, {"variant": "G17A U20A G36A", "self-cleavage": 0.08}, {"variant": "C10G G22U C42U", "self-cleavage": 0.12}, {"variant": "C8U C23G C31U", "self-cleavage": 0.17}, {"variant": "G5U C15U C37G C45G", "self-cleavage": 0.03}, {"variant": "G21A G33A G40C", "self-cleavage": 0.07}, {"variant": "A4C C8U A11U G36C A39U", "self-cleavage": 0.03}, {"variant": "A4C G30U G33A", "self-cleavage": 0.08}, {"variant": "G27U U34C U43A", "self-cleavage": 0.02}, {"variant": "A12U U34G A41U", "self-cleavage": 0.04}, {"variant": "C8G C23U C37G", "self-cleavage": 0.06}]}]}
